Source: PubChem BioAssay AID1631 (National Center for Advancing Translational Sciences (NCATS), 2009)
Among all 260,000 compounds or so, about 890 (0.34%) were called active. Inconclusive results, whose numbers are uncertain, are shown with a selection of clear calls. Calls follow the shape of the dose curve; as a rule, active = well fitted activation curve with a large enough effect; inconclusive = small, poorly fitted or top-dose-only effect; inactive = no such curve, though single readings can be large or run the other way. Potencies of inconclusive entries are left out as doubtful fits.
% is scaled to controls: 0 for no effect and ±100 for the full control effect; potency is read from the fitted curve at half-maximal effect; tags tell the direction and shape of the fitted curve.
Also: nearly all actives have a fitted effect of over 55% in size.

The compounds below were run against Pyruvate kinase PKM (Homo sapiens) (UniProt P14618) (assay: qHTS Assay for Activators of Human Muscle isoform 2 Pyruvate Kinase). Conditions: purified PKM2, Kinase-Glo ATP luminescence; Potency: activation; activation: at 57.5 µM (top of the series), 0% is enzyme alone, no compound.
UniProt P14618, sequence (P14618 whole entry, looked up, canonical isoform): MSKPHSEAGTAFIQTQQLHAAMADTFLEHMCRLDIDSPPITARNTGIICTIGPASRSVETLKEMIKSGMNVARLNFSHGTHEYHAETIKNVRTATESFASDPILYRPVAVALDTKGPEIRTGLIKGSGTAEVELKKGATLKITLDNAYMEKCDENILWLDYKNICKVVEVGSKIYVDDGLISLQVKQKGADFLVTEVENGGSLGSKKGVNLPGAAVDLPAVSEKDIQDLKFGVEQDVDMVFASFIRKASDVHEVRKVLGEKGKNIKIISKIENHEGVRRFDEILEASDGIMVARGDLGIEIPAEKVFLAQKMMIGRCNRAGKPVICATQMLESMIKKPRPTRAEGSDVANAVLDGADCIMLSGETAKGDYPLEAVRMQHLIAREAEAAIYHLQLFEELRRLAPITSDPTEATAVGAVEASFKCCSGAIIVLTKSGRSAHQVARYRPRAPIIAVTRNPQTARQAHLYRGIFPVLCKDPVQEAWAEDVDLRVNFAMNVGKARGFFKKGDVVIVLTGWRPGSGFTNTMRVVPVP
How it was run: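 Kinase-Glo luminescence reports ATP generated from ADP (0.1 mM) and PEP (0.5 mM) by purified hPK-M2 after 1 h at room temperature, pH 7.2 imidazole buffer; intermediate enzyme activity allows detecting inhibitors and activators.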
In the case of CCCOc1ccc(N2C(=O)CC(N(O)c3ccccc3)C2=O)cc1 (stereo unspecified), the Potency is reported as “inactive”.
In the case of Cn1c2ccccc2c2nnc(SCC(=O)Nc3cccc(O)c3)nc21, the Potency is reported as inconclusive [rising, full curve].
Cc1cc(C)cc(N=C2NC(=O)/C(=C/c3cccs3)S2)c1 was tested, and the Potency was “inactive”.
COC(=O)CCCC1=CC2=C(c3ccccc3)C(=O)C(C)(OC(=O)C3CCCC3)C(=O)C2=CN1Cc1ccc(OC)cc1 (stereo unspecified) was tested, and the Potency was inconclusive [rising, full curve].
Cc1ccc(/C=C/C(=O)N2CCN(S(=O)(=O)c3ccc(C)c(C)c3)CC2)o1 was tested, and the Potency was inconclusive [rising, full curve].
O=C(c1cc(-c2cccs2)nc2ccccc12)N1CCN(S(=O)(=O)c2ccccc2)CC1 was tested, and the Potency was inconclusive [rising, partial curve].
Cc1cc(Cl)ccc1C(=O)C1CCCN(C(=O)/C=C/c2cnn(C)c2)C1 (stereo unspecified) was tested, and the Potency was inconclusive [rising, single point].
O=c1cc(Cn2nnc(-c3ccc(Cl)cc3)n2)nc2sccn12 was tested, and the Potency was active: 14.1 µM.
N#C/C(=C\c1cccc([N+](=O)[O-])c1)C(=O)NCc1ccc(Cl)cc1 was tested, and the Potency was inconclusive [rising, partial curve].
COc1ccc(-c2noc(CCC(=O)Nc3cc(Cl)c(OC)cc3OC)n2)cc1 was tested, and the Potency was inconclusive [rising, partial curve].
In the case of COc1cccc(CNS(=O)(=O)c2ccc3c(c2)CCN3C(=O)C2CC2)c1, the Potency is reported as inconclusive [rising, partial curve].
For CN(CC1CCCN(CCc2cccc(C(F)(F)F)c2)C1)C(=O)c1cc2ccccc2o1 (stereo unspecified), the Potency was inconclusive [rising, single point].
With CC(=O)Nc1ccc(NC(=O)C(C)N2CCN(S(=O)(=O)c3ccc(C)cc3)CC2)cc1 (stereo unspecified) the Potency was inconclusive [rising, single point].
CCOc1ccccc1-c1nc2c(C(C)(C)C)nn(C)c2c(=O)[nH]1 was tested, and the Potency was “inactive”.
For Cc1cccc(N2CCN(C(=O)CCCn3c(=S)[nH]c4cc5c(cc4c3=O)OCO5)CC2)c1C, the Potency was inconclusive [rising, full curve].
With CCC(C)(C)n1nnnc1C(c1ccc(Cl)cc1)N1CCN(C)CC1 (stereo unspecified) the Potency was inconclusive [rising, single point].
For O=C(N/N=C/c1ccc(N2CCCCC2)o1)c1ccccc1[N+](=O)[O-], the Potency was inconclusive [rising, full curve].
In the case of Cc1ccccc1NS(=O)(=O)c1ccc2c(c1)NC(=O)CO2, the Potency is reported as inconclusive [rising, partial curve].
O=C(CCC(=O)N1CCOCC1)NCCc1ccc(Cl)cc1Cl was tested, and the Potency was “inactive”.
With CSc1nc2ccc(S(N)(=O)=O)cc2s1 the Potency was inconclusive [rising, partial curve].
In the case of O=C(NCc1ccco1)c1ccc2nc3sc4c(c3c(=O)n2c1)CCCC4, the Potency is reported as inconclusive [rising, single point].
CCCNc1nc(Cl)nc(NCc2cccnc2)n1 was tested, and the Potency was inconclusive [rising, partial curve].
In the case of O=[N+]([O-])c1cc(/C=N/N/C(=N/c2ccccn2)c2ccccn2)ccc1O, the Potency is reported as inconclusive [rising, single point].
With Cc1nc2ccc(-c3nc4ccc(N)cc4[nH]3)cc2[nH]1 the Potency was “inactive”.
With Cc1cccc(C)c1NC(=S)N/N=C/c1ccccc1C(=O)O the Potency was inconclusive [rising, single point].
In the case of COc1cc(SC)ccc1C(=O)OCC(=O)NC1CC1, the Potency is reported as inconclusive [rising, single point].
With CC(/C=N/NC(=O)CSc1nc2ccccc2n1C)=C\c1ccco1 the Potency was active: 5.01 µM.
Cc1ccc(S(=O)(=O)O/N=C2\CCCc3ccccc32)cc1 was tested, and the Potency was “inactive”.
In the case of O=C1CN(S(=O)(=O)c2ccccc2)CCN1S(=O)(=O)c1ccccc1, the Potency is reported as active: 4.47 µM.
For O=S(=O)(c1ccc(Br)cc1)n1ccc2ccccc21, the Potency was inconclusive [rising, single point].
In the case of Cc1nc2nc(COc3ccccc3)nn2c(C)c1Cl, the Potency is reported as inconclusive [rising, single point].
For Cn1c(/C(C#N)=C(\O)CN2CCN(Cc3ccccc3)CC2)nc2ccccc21, the Potency was “inactive”.
In the case of O=C(Nc1nnc(-c2ccc(Cl)cc2)o1)c1nc2ccccc2s1, the Potency is reported as inconclusive [rising, single point].
With C=C1C(=O)[C@@]23[C@H](O)C[C@@H]4C(C)(C)CC[C@H](O)[C@]4(C)[C@@H]2C[C@H](O)[C@@H]1[C@H]3O the Potency was “inactive”.
For Cc1ccc(-c2cc(C)nc3ncnn23)cc1, the Potency was “inactive”.
Cc1ccc2nc(-c3ccc(NC(=O)CN(c4ccccc4C)S(C)(=O)=O)cc3)sc2c1 was tested, and the Potency was “inactive”.
With O=C(CCCCCBr)N1CCC(CC2CC(c3ccc(Cl)cc3)=NO2)(C(=O)NCC2CCCCC2)CC1 (stereo unspecified) the Potency was “inactive”.
In the case of O=C1C=C(c2ccccc2)C[C@H](c2cccs2)[C@H]1n1cnc([N+](=O)[O-])c1, the Potency is reported as inconclusive [rising, single point].
In the case of O=C(c1ccc(-c2ccccc2)cc1)C1CCCN(C(=O)c2cncs2)C1 (stereo unspecified), the Potency is reported as inconclusive [rising, single point].
For O=C(Cc1cccs1)Nc1nnc(C2CC2)s1, the Potency was inconclusive [rising, partial curve].
For O=C(C(Cc1ccccc1)N1C(=O)C2C3C=CC(C3)C2C1=O)N1CCCCC1 (stereo unspecified), the Potency was “inactive”.
In the case of COc1ccc(NC(=O)COc2ccccc2C#N)c(S(=O)(=O)N2CCCCC2)c1, the Potency is reported as inconclusive [rising, single point].
For CC(/C=C/c1ccco1)=N/NC(=O)CNc1ccccc1C, the Potency was inconclusive [rising, partial curve].
For C=CCOc1ccc(C(=O)CC)cc1OC, the Potency was “inactive”.
For COc1ccc(N2C(=O)CC(Sc3nnnn3-c3ccc(F)cc3)C2=O)cc1 (stereo unspecified), the Potency was active: 28.2 µM.
In the case of Cc1cccc(NS(=O)(=O)c2ccc3[nH]c(=O)cc(C(=O)OC(C)C(=O)Nc4ccc([N+](=O)[O-])cc4)c3c2)c1 (stereo unspecified), the Potency is reported as inconclusive [rising, single point].
Cc1cccc(N2CCN(C(=O)c3ccc(NS(=O)(=O)c4c(C)noc4C)cc3)CC2)c1C was tested, and the Potency was inconclusive [rising, full curve, poor fit].
With CCNC(=O)COC(=O)C1C(C(=O)OCC)=C(C)NC(C)=C1C(=O)OCC the Potency was “inactive”.
In the case of C=CCn1c(SCc2nc3ccccc3nc2C)nnc1-c1ccoc1C, the Potency is reported as inconclusive [rising, single point].
For Cc1n[nH]c(C)c1S(=O)(=O)N1CCc2ccccc21, the Potency was inconclusive [rising, full curve].
In the case of NC(=O)CSc1nc2scc(-c3ccco3)c2c(=O)n1-c1ccccc1, the Potency is reported as inconclusive [rising, single point].
In the case of CCOC(=O)c1ccc(NC(=S)Nc2cccc(N)n2)cc1, the Potency is reported as inconclusive [rising, partial curve, poor fit].
With CCC(=O)N(C)CCc1cc2c(c(OC)c1/C=N/NC(=O)[C@H]1C[C@@H]1c1ccccc1)OCO2 the Potency was “inactive”.
C=CCOC(=O)Nc1snnc1C was tested, and the Potency was “inactive”.
CC(Sc1ccc([N+](=O)[O-])cn1)C(=O)Nc1nccs1 (stereo unspecified) was tested, and the Potency was active: 6.31 µM.
In the case of Cc1ccc(C(=O)NCCn2c(N)c(C#N)c3nc4ccccc4nc32)cc1, the Potency is reported as inconclusive [rising, partial curve].
In the case of FC(F)(F)c1ccccc1NC(=S)NC1CCN(Cc2ccccc2)CC1, the Potency is reported as inconclusive [rising, single point].
With CCCCc1cc2c(cn1)=C(OC(=O)c1cccs1)C(C)(OC(=O)CC)C(=O)C=2 (stereo unspecified) the activation was inactive: 4.16% [at 11.5 µM, 0% is enzyme alone, no compound].
With CNc1ccccc1C(C)(C)c1cc(-c2ccco2)n[nH]1 the Potency was inconclusive [rising, single point].
O=C(CNS(=O)(=O)c1ccc(Br)s1)N1CCCC1 was tested, and the Potency was “inactive”.
With O=[N+]([O-])c1ccc(N2CCN(S(=O)(=O)c3ccccc3)CC2)cc1NCc1ccco1 the Potency was inconclusive [rising, full curve].
With Cc1nc2cc(C(F)(F)F)ccc2n1C1CCN(C(=O)N2CCOCC2)CC1 the Potency was inconclusive [rising, single point].
Cc1cc([N+](=O)[O-])c2[nH]c(C(=O)N/N=C/c3ccccc3C(=O)O)c(-c3ccccc3)c2c1 was tested, and the Potency was inconclusive [rising, single point].
COc1ccccc1-c1n[nH]c(=S)n1Cc1ccco1 was tested, and the Potency was “inactive”.
With COc1cccc(COc2nc3c(c(=O)n(C)c(=O)n3C)n2C)c1 the Potency was inconclusive [rising, partial curve].
In the case of NNc1nc(-c2ccccc2)cc(-c2ccccc2O)n1, the Potency is reported as “inactive”.
In the case of Oc1ccc(-c2nc(-c3ccc(O)c(O)c3)cs2)cc1, the Potency is reported as active: 3.16 µM.
In the case of COc1ccc(-c2nnn(CC(=O)N(CCO)C(C(=O)NC3CCCC3)c3ccc(F)cc3)n2)cc1 (stereo unspecified), the Potency is reported as inconclusive [rising, single point].
With COc1ccc(-c2nn3c(COc4ccccc4)nnc3s2)cc1OC the Potency was inconclusive [rising, full curve, poor fit].
With COc1cc(C(=O)NC2CC(C)(C)NC(C)(C)C2)cc(OC)c1OC the Potency was inconclusive [rising, single point].
For CCOC(=O)/C(=C/c1cn(C)c2ccccc12)NC(=O)c1ccccc1, the Potency was inconclusive [rising, single point].
